{"source": "PubChem BioAssay AID651820", "about": "(National Center for Advancing Translational Sciences (NCATS), 2012)", "note": "Among all 340,000 compounds or so, about 12,000 (3.5%) were called active. The shares of active, inactive and inconclusive entries below differ from those in the screen. The call rests on the fitted dose curve; in most records, active means well fitted inhibition curve with a large enough effect; inconclusive means small, poorly fitted or top-dose-only effect, or another doubt; inactive means no such curve, though single readings can be large or run the other way. Potencies of inconclusive entries are left out as doubtful fits. On the % scale 0 is the no-effect control and ±100 the full control effect; potency means the concentration at half of the fitted maximal effect; tags describe the fitted curve by direction and shape."}
{"experiment": "qHTS Assay for Inhibitors of Hepatitis C Virus (HCV)", "settings": "Huh7.5.1 HCVcc-Cre (HCVcc is cell-culture hepatitis C virus) infection, luciferase reporter, 44 h; activity change, negative = inhibition: at 41.8 µM (top of the series) unless noted", "in_short": "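A cell-based infection assay in which seeded cells (1,000 per well) receive test compound after 4 h, are inoculated with HCVcc-Cre at approximately 0.5 moi, and are incubated 44 h before luminescence detection.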"}
{"smiles": "COc1ccc2[nH]c3c(Cl)ncnc3c2c1", "Potency": "inconclusive [inhibitor, single point]"}
{"smiles": "Cc1cc(C)n(CC(=O)N/N=C/c2ccc([N+](=O)[O-])s2)n1", "Potency": "inconclusive [inhibitor, single point]"}
{"smiles": "Cc1ccc(CS(=O)(=O)c2ccc(C(=O)N3CCN(c4ccccn4)CC3)cc2[N+](=O)[O-])cc1", "Potency": "inconclusive [inhibitor, single point]"}
{"smiles": "Cc1ccsc1CN(C)CC(=O)NCC(=O)Nc1ccc(F)cc1", "activity change, negative = inhibition": "inactive: 12.3%"}
{"smiles": "O=C(O)/C=C1\\CCCc2ccccc2C1O", "note": "(stereo unspecified)", "Potency": "inconclusive [inhibitor, partial curve, poor fit]"}
{"smiles": "C/C(=N\\Nc1nnc(-c2ccccc2)c(-c2ccccc2)n1)c1cccc([N+](=O)[O-])c1", "activity change, negative = inhibition": "inactive: 13.7%"}
{"smiles": "CCc1ccccc1NC(=O)CN1CCN(CC(=O)NCc2ccc(Cl)cc2)CC1", "Potency": "inconclusive [inhibitor, single point]"}
{"smiles": "CC(Sc1nnc(-c2ccccc2F)n1N)C(=O)NCC1CCCO1", "note": "(stereo unspecified)", "Potency": "inconclusive [inhibitor, single point]"}
{"smiles": "O=C1c2cccc3c(N4CCCCC4)ccc(c23)C(=O)N1CCO", "Potency": "inconclusive [inhibitor, single point]"}
{"smiles": "Cc1cc(C)n(-c2nc(N(c3ccccc3)c3ccccc3)nc(-n3nc(C)cc3C)n2)n1", "Potency": "active: 10 µM"}
{"smiles": "CCCN1CCN(c2nc(-c3cccs3)nc3ccccc23)CC1", "Potency": "inconclusive [inhibitor, full curve, poor fit]"}
{"smiles": "CC(C)NC(=O)NC(=O)COc1ccc(Br)cc1Br", "Potency": "inconclusive [inhibitor, single point]"}
{"smiles": "CC(Oc1ccc(Cl)cc1Cl)C(=O)N(C)c1ccccc1", "note": "(stereo unspecified)", "activity change, negative = inhibition": "inactive: 0.123%"}
{"smiles": "COc1cccc(C(=O)N(Cc2nc(-c3cccc(C)c3)no2)C(C)C)c1OC", "Potency": "inconclusive [inhibitor, single point]"}
{"smiles": "Cc1cc(C)nc(N/N=C2/CCCC/C2=C\\c2ccccc2)n1", "Potency": "inconclusive [inhibitor, single point]"}
{"smiles": "COc1ccc(-n2c(CN3CCN(Cc4ccccc4)CC3)nc3ccc([N+](=O)[O-])cc3c2=O)c(OC)c1", "activity change, negative = inhibition": "inactive: -9.41%"}
{"smiles": "CCOc1ccc(NC(=O)CN(C)CC(=O)NC2CCCc3ccccc32)cc1OCC", "note": "(stereo unspecified)", "Potency": "inconclusive [inhibitor, partial curve]"}
{"smiles": "N#CC(C#N)=C1C=CC=CN1/C(=C\\c1ccccc1)C(=O)c1cccs1", "activity change, negative = inhibition": "inactive: -24.9%"}
{"smiles": "COc1cc(-c2nnc(-c3cccnc3)o2)cc(OC)c1OC", "Potency": "inconclusive [inhibitor, partial curve]"}
{"smiles": "CCOc1cnn(-c2cc(Oc3ccc(C)cc3)ncn2)c(=O)c1Cl", "activity change, negative = inhibition": "inactive: -5.84%"}
{"smiles": "O=C(COC(=O)c1ccc(O)cc1)Nc1ccc2c(c1)OCO2", "activity change, negative = inhibition": "inactive: 5.37%"}
{"smiles": "O=C(N/N=C/c1sc(=O)n(Cc2ccc(Br)cc2)c1Cl)c1ccco1", "Potency": "inconclusive [inhibitor, full curve, poor fit]"}
{"smiles": "CCCCCCn1c(SCC(=O)OC)nc2c1c(=O)[nH]c(=O)n2C", "Potency": "active: 5.01 µM"}
{"smiles": "COc1ccccc1-c1cc(C(=O)NCCCn2ccnc2)no1", "Potency": "inconclusive [inhibitor, partial curve]"}
{"smiles": "COc1ccc(-n2c(N)c(C(=O)NCc3ccco3)c3nc4ccccc4nc32)c(OC)c1", "Potency": "inconclusive [inhibitor, partial curve]"}
{"smiles": "CCOC(=O)C(=NCCOC)NNc1cc(Cl)ccc1Cl", "Potency": "inconclusive [inhibitor, partial curve]"}
{"smiles": "O=C(C1=NN(c2ccccc2)C2C(=O)N(c3ccccc3Cl)C(=O)C12)c1ccccc1", "note": "(stereo unspecified)", "activity change, negative = inhibition": "inactive: 3.77%"}
{"smiles": "Cc1cc(C(F)F)n2ncc(C(=O)NCCc3ccc(Cl)cc3)c2n1", "Potency": "inconclusive [inhibitor, full curve]"}
{"smiles": "Cc1ccc(S(=O)(=O)Nc2ccc(N(C)S(=O)(=O)c3ccc(C)cc3)cc2)cc1", "Potency": "inconclusive [inhibitor, single point]"}
{"smiles": "CCOc1ccc(C(=O)C(C)OC(=O)Cn2c(C)csc2=O)cc1", "note": "(stereo unspecified)", "activity change, negative = inhibition": "inactive: 2.86%"}
{"smiles": "COc1cccc2c(=O)cc(C)n(CC(=O)Nc3ccc(C)c(C)c3)c12", "Potency": "active: 5.01 µM"}
{"smiles": "O=C(NCc1csc(-c2ccccc2)n1)c1ccco1", "activity change, negative = inhibition": "inactive: -16.6%"}
{"smiles": "Cc1ccc2cc(C)c(N3CCN(c4ccccn4)CC3)nc2c1", "Potency": "inconclusive [inhibitor, partial curve, poor fit]"}
{"smiles": "Cc1ccccc1Cn1nc(C)c(NC(=O)c2sc3ccccc3c2Cl)c1C", "Potency": "active: 31.6 µM"}
{"smiles": "COC(=O)c1c(NC(=O)CSc2nc(-c3ccco3)cc(C(F)(F)F)n2)sc2c1CCCC2", "Potency": "inconclusive [inhibitor, full curve, poor fit]"}
{"smiles": "Cc1ccccc1N(C(=O)c1snc(C(N)=O)c1N)C(C(=O)NC1CCCCC1)c1ccc(O)cc1", "note": "(stereo unspecified)", "Potency": "active: 10 µM"}
{"smiles": "CCN(CC(=O)Nc1c(F)cccc1F)C(=O)c1cccc(S(=O)(=O)N(C)c2ccccc2)c1", "activity change, negative = inhibition": "inconclusive: -32.3% [inhibitor]"}
{"smiles": "O=C(Cc1ccc(Cl)cc1)NNC(=S)NC(=O)c1cccnc1", "activity change, negative = inhibition": "inactive: 4.99%"}
{"smiles": "O=C(O)C1Cc2ccccc2CN1C(=O)c1ccco1", "note": "(stereo unspecified)", "activity change, negative = inhibition": "inactive: 1.24%"}
{"smiles": "COc1ccc(-n2nc(C(=O)NCC(=O)NC(C)C)c3ccccc3c2=O)cc1", "activity change, negative = inhibition": "inactive: 4.22%"}
{"smiles": "C=C(C)[C@H]1CC=C(C)C(=O)C1", "activity change, negative = inhibition": "inactive: 17.6%"}
{"smiles": "COc1ccc(-c2csc3nc(C)nc(N4CCN(c5ccc(C(C)=O)cc5)CC4)c23)cc1OC", "Potency": "inconclusive [inhibitor, partial curve]"}
{"smiles": "CC1(C)CC(NC(=O)c2ccc(Cl)c(Cl)c2)CC(C)(C)N1", "Potency": "inconclusive [inhibitor, single point]"}
{"smiles": "Cc1c(Cl)cccc1NC(=O)CNc1cccc(S(=O)(=O)N(C)C)c1", "Potency": "inconclusive [inhibitor, partial curve, poor fit]"}
{"smiles": "CCCCSc1nnc(CNC(=O)C23CC4CC(CC(C4)C2)C3)n1Cc1ccccc1", "Potency": "inconclusive [inhibitor, single point]"}
{"smiles": "Cc1ccc(-c2nc3ccccc3[nH]2)s1", "Potency": "inconclusive [inhibitor, single point]"}
